In the supplement of paper PMC3334620:
The full ranking holds about 33,000 sequences; the median of “E-score (-0.5 to 0.5)” is about -0.016, and the highest 2% start at about 0.32. The list shows a part of the results.

What follows are sequences tested against T1, Stp1 (UniProt B3LFK1) (assay: PBM E-score (8-mer binding enrichment) (E-score (-0.5 to 0.5)); higher = stronger / more preferred TF binding; most listed sequences are background and not binding sites). Details: protein concentration: 200 nM; construct: GST-full length.
T1 sequence: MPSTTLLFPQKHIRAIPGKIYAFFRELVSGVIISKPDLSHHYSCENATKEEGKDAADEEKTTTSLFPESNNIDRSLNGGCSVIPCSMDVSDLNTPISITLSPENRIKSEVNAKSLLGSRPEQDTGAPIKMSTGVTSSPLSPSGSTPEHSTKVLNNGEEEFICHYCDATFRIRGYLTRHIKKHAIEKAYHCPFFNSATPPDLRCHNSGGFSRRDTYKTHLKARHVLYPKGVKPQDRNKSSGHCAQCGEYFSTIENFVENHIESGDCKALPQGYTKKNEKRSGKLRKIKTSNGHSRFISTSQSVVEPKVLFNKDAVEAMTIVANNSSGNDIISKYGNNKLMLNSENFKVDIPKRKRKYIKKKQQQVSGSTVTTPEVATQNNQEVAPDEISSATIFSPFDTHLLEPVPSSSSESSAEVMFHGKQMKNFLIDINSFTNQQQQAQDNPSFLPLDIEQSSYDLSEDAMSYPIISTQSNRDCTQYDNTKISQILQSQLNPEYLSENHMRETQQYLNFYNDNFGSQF
Method in brief: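 The E-score, a modified Wilcoxon-Mann-Whitney statistic, was computed by the Universal PBM Analysis Suite for every ungapped eight-base word pooled with its reverse complement. Scans behind it were normalised with masliner after bound GST-tagged yeast transcription factors were detected with fluorescent anti-GST. The proteins, at about 100-200 nM, had been applied to universal all-10-mer Agilent arrays made double-stranded by primer extension.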

| Sequence | PBM E-score |
| --- | --- |
| CGAACCCC | -0.24 |
| AGACACAC | -0.0769 |
| ATAGCATG | -0.16 |
| GGATAAAA | 0.137 |
| CCACAAGA | -0.122 |
| CACGACAC | 0.117 |
| CCGGCGGC | 0.152 |
| ATCGTATG | 0.195 |
| CTATAAAA | 0.0322 |
| TAGACCGA | -0.165 |
| CCTCATTC | -0.0483 |
| ATGCGTCA | -0.00827 |
| GCCTAATA | 0.0922 |
| GCGACAAC | 0.172 |
| AAGTAACC | -0.0573 |
| GTACTCCA | -0.0272 |
| GAATTCTA | 0.236 |
| GAAGTTCC | -0.141 |
| CCAACGAA | 0.0401 |
| CTGAACCC | -0.0278 |
| GCTAAGCC | 0.03 |
| GTGCCATA | 0.175 |
| GATGATGC | 0.115 |
| TAACGCAA | 0.189 |
| CCGCGTAG | 0.25 |

| Sequence | PBM E-score |
| --- | --- |
| CCGTCCAG | 0.0807 |
| GATCCCCC | -0.411 |
| GGAACCAA | -0.0547 |
| AAGAGTGG | -0.267 |
| ACACAGGC | -0.0347 |
| GAACGTTA | 0.0285 |
| GGATACTA | -0.0281 |
| ACGTCTAA | 0.162 |
| CCTTTTCG | 0.146 |
| CCGTTCAG | 0.271 |
| AGTTGCCG | 0.288 |
| CTTAGGCC | -0.0964 |
| ATCTAAAG | -0.0363 |
| AATTATTA | 0.111 |
| CTCCCCAA | -0.229 |
| GTTCCCAA | -0.113 |
| CCGATATA | 0.0401 |
| CTCCTCAA | -0.139 |
| CGCTAGCC | -0.19 |
| CACGGTAA | 0.139 |
| GCGCATAC | 0.0533 |
| GGTCTAGA | -0.153 |
| CATTACGG | 0.0818 |
| GCGCAACC | -0.0997 |
| CGCAACAC | 0.107 |

| Sequence | PBM E-score |
| --- | --- |
| CTCGACAC | 0.0218 |
| CTAGGGAA | -0.0313 |
| CTATTGGA | 0.0629 |
| ATAATATC | 0.203 |
| GACTTTGA | -0.0498 |
| CCCAGTGA | -0.0839 |
| AAGTCGGG | -0.235 |
| CTGTATTA | 0.103 |
| AGTCTCAT | -0.157 |
| CACATGTA | 0.127 |
| CCCAGTTA | -0.23 |
| ACCGCCCG | -0.195 |
| CGTTGGTA | 0.0734 |
| TATTAGCA | 0.0213 |
| CTGATTAC | 0.0824 |
| GGATAGTA | 0.0402 |
| GTCACCGA | 0.0238 |
| CCGTAGGC | 0.144 |
| GACAGCCC | -0.143 |
| ACATGCAC | 0.0354 |
| CCATCTGC | -0.055 |
| AACCAGAC | -0.174 |
| GTGGTGCA | -0.157 |
| GCCGATCC | 0.0492 |
| GCCAAATA | 0.109 |

| Sequence | PBM E-score |
| --- | --- |
| GAGATGAC | -0.282 |
| GGTCGATA | -0.144 |
| CGACTCCA | -0.331 |
| CGGACATA | 0.131 |
| ATACGGCC | 0.406 |
| CCCCATCG | -0.0472 |
| CGCAATAC | 0.158 |
| GAGCATCC | -0.254 |
| AAACGCAA | 0.152 |
| GTGCTCGA | -0.0498 |
| GTGTGGTA | -0.0047 |
| AGTGCAAC | -0.0282 |
| AGTCTTAT | -0.0786 |
| AGTTTACG | -0.0251 |
| GTTGGTTA | 0.0838 |
| CCTAGCAG | -0.16 |
| CTACGCAA | -0.0558 |
| AGGATAAC | -0.132 |
| ATCGATAC | 0.208 |
| AGGCCATA | -0.042 |
| ACTTAGTG | -0.00783 |
| AACTATGA | 0.0832 |
| GAACGTCC | -0.0916 |
| TAGAAAAA | 0.0466 |
| ATGGTAAC | 0.166 |

| Sequence | PBM E-score |
| --- | --- |
| CCATCGAC | -0.175 |
| AGCCACGA | -0.106 |
| AGTGATGG | -0.223 |
| CACCTGGG | -0.179 |
| GATCGCAA | 0.0331 |
| CAACGGCA | 0.402 |
| GGCAGTTA | 0.0772 |
| GGGAAATA | 0.0153 |
| CTATCTGC | -0.265 |
| CCCGCAGC | -0.123 |
| GCCACGTA | 0.156 |
| CAGCTACG | -0.14 |
| GACAGATA | 0.0745 |
| GTCATTAA | 0.0542 |
| AAATGAAC | 0.00278 |
| CATGCTTC | -0.0116 |
| CGCGGTCC | 0.0444 |
| CCGAGATA | 0.0387 |
| CGAGCAAA | 0.0686 |
| AAACCGCG | 0.256 |
| CGCTTCGA | 0.00998 |
| CAGACGAA | 0.269 |
| GGCCAGAA | 0.00154 |
| ACAACAAA | 0.215 |
| CCTCGGCA | 0.282 |

| Sequence | PBM E-score |
| --- | --- |
| CTCTGGAA | -0.066 |
| TCCCGGGA | -0.0864 |
| ACTACTTA | -0.0788 |
| AGTTCATA | 0.0982 |
| CTTGCTTC | -0.0155 |
| CGACGGAA | -0.0215 |
| GCGAGGAC | -0.153 |
| GTCACAAC | 0.0595 |
| ATAGGGAT | 0.0389 |
| CACTGGAC | -0.105 |
| GCGCCTGA | 0.16 |
| AAGCACCG | -0.105 |
| GACGGTCA | -0.266 |
| GGTCTCGA | -0.0339 |
| ACCGAGGC | -0.121 |
| GGCAGCGA | 0.118 |
| GGGATACA | -0.316 |
| ATGGAAAT | 0.0295 |
| AACGCGCG | 0.232 |
| CTCCGGAC | -0.0608 |
| CCACACAC | 0.135 |
| CCCCTAGA | -0.293 |
| AGAAATCA | 0.207 |
| CGATGCAA | -0.034 |
| CCGACCGG | -0.261 |

| Sequence | PBM E-score |
| --- | --- |
| ATGACATA | -0.00518 |
| CATAGGTA | -0.0698 |
| ACAGCCCA | -0.0809 |
| ATTTGAGC | 0.0657 |
| ATCGCTCA | -0.154 |
| ATTCGATG | -0.0786 |
| GTAGCGTA | -0.163 |
| ACGTTGAT | 0.12 |
| CTGGCGGC | 0.0639 |
| CAAGACGA | -0.0928 |
| AGTGTGCA | 0.0562 |
| AAAAACAC | 0.128 |
| ACCTGACC | -0.197 |
| GACCCCAC | -0.0294 |
| CAGTGCAC | -0.134 |
| CTCTTATA | 0.175 |
| AATTATCT | 0.0629 |
| AGATGCAG | -0.0728 |
| GAGAACCC | -0.358 |
| ATACTTTG | 0.0376 |
| GGTCGTGA | -0.188 |
| TCAATGGA | -0.0121 |
